From PubChem BioAssay (NCATS)
“And” between values parts separate entries of the source, which are not always exact repeats. Identical values can stand only once. For some assays here: A note “side channel” means that the fit belongs to a control or component signal, not to the main read-out. The source holds several records for some structures; these can differ, active in one and inactive in another. The source made the active and inactive calls. Unless noted, calls come from the whole dose curve; as a rule, active = well fitted curve in the direction sought with a large enough effect; inconclusive = small, poorly fitted or top-dose-only effect, or another doubt; inactive = no such curve, though single readings can be large; an effect the other way counts as inactive or inconclusive.

Legend:
[1] = Cell Viability - H-4-II-E (AID 543); conditions: H-4-II-E rat hepatoma viability; series mostly up to 92.2 µM; note: nearly all actives have a fitted effect of over 35% in size
In short: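 Rat hepatoma H-4-II-E cells, 1500 per well, treated 40 h at 37 °C in complete medium. Cellular ATP read by CellTiter-Glo luminescence; AC50 from Hill fits of concentration-response.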

[2] = MultiTox-Fluor Cytotoxicity Assay - LYMP1-001 - Live Cells (AID 947); conditions: LYMP1-001 lymphoblastoid cells, live-cell protease fluorescence viability; series mostly up to 92.2 µM
[3] = MultiTox-Fluor Cytotoxicity Assay - LYMP1-002 - Dead Cells (AID 960); conditions: LYMP1-002 lymphoblastoid cells, dead-cell protease fluorescence; cytotoxicity (dead cells): at 46.1 µM (top of the series); note: nearly all actives have a fitted effect of over 60% in size;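 for cytotoxicity (dead cells): 0% = DMSO and 100% = tetraoctylammonium bromide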
In short: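 Human lymphoblastoid LYMP1-002 cells, 2500/well, treated 16 h at 37 C; dead-cell protease cleavage of bis-AAF-R110 read by fluorescence (485/520); normalized to DMSO and 15 uM tetraoctylammonium bromide; AC50 from Hill fit.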

[4] = Cell Viability - LYMP2-005 (AID 967); conditions: LYMP2-005 lymphoblastoid cell viability; series mostly up to 92.2 µM
In short: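 CellTiter-Glo luminescence (cellular ATP) read-out; LYMP2-005 lymphoblastoid cells, 2500/well, 5 h pre-incubation, then 24 h compound exposure at 37 C in complete medium. Tetraoctylammonium bromide positive control; AC50 by standard Hill fit.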

[5] = target: Glucocorticoid receptor (Homo sapiens) (UniProt P04150); experiment: qHTS assay for small molecule antagonists of glucocorticoid receptor signaling (AID 588533; active = well fitted inhibition curve with a large enough effect in the signal ratio, with a control signal flat, not every such curve was filed as active; inconclusive = small, poorly fitted or top-dose-only effect, or effect the other way, or a change in a side signal; the % refers to the signal ratio;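 note: cells stimulated with 2 nM dexamethasone as agonist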; for activity change, negative = inhibition: % is set by controls: 0 for no effect and ±100 for the full control effect); conditions: HeLa MMTV-bla, GRE beta-lactamase ratio, antagonist mode, 18 h; activity change, negative = inhibition: at 76.8 µM (top of the series)
[6] = target: Peroxisome proliferator-activated receptor delta (Homo sapiens) (UniProt Q03181); experiment: qHTS assay for small molecule antagonists of peroxisome proliferator-activated receptor delta signaling (AID 588535; active = well fitted inhibition curve with a large enough effect in the signal ratio, with a control signal flat, not every such curve was filed as active; inconclusive = small, poorly fitted or top-dose-only effect, or effect the other way, or a change in a side signal; inactive = no such curve, though single readings can be large or run the other way; the % refers to the signal ratio); conditions: HEK293T PPARd-UAS-bla, beta-lactamase FRET ratio, 18 h
Sequence of UniProt Q03181 (Q03181 whole entry, looked up): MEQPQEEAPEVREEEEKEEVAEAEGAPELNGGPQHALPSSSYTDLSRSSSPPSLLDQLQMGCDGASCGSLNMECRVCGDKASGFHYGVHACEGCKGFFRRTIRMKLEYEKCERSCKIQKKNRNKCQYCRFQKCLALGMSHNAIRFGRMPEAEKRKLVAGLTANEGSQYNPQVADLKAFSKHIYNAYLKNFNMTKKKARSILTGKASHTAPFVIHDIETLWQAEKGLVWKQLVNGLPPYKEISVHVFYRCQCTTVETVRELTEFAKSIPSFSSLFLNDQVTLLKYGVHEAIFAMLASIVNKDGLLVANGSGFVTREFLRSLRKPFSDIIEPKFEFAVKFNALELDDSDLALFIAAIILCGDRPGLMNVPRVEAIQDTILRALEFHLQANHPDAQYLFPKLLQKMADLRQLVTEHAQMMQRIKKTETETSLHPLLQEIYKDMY
In short: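 Reporter: UAS-bla under PPAR-delta response element, HEK293T host. Medium: 2% charcoal/dextran FBS. Dosing: titration, 18 hrs, 37 C. Detection: CCF4, 2 hrs RT, 405 ex/460 and 530 em.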

[7] = target: Peroxisome proliferator-activated receptor gamma (Homo sapiens) (UniProt P37231); experiment: qHTS assay for small molecule agonists of peroxisome proliferator-activated receptor gamma signaling (AID 588536; active = well fitted curve in the direction sought with a large enough effect in the signal ratio, with a control signal flat, not every such curve was filed as active; inconclusive = small, poorly fitted or top-dose-only effect, or effect the other way, or a change in a side signal; inactive = no such curve, though single readings can be large or run the other way; the % refers to the signal ratio;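 for activation: 0% = DMSO basal wells and 100% = rosiglitazone at 2 µM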); conditions: HEK293 PPARg-UAS-bla, beta-lactamase ratio, 16 h; activation: at 76.7 µM (top of the series), percent of rosiglitazone response, DMSO as zero
In short: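 GeneBLAzer PPAR-gamma-UAS-bla HEK293 cells in 1% charcoal/dextran-treated FBS medium were treated 16 h at 37 C with compounds. Beta-lactamase activity was read by CCF4 ratio (460/530 nm). Response was normalized to 2 uM rosiglitazone (100%) and DMSO, then Hill-fitted for EC50 and efficacy.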

[8] = target: Peroxisome proliferator-activated receptor gamma (Homo sapiens) (UniProt P37231); experiment: qHTS assay for small molecule antagonists of peroxisome proliferator-activated receptor gamma signaling (AID 588537; active = well fitted inhibition curve with a large enough effect in the signal ratio, with a control signal flat, not every such curve was filed as active; inconclusive = small, poorly fitted or top-dose-only effect, or effect the other way, or a change in a side signal; the % refers to the signal ratio;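 note: reporter cells co-stimulated with 50 nM rosiglitazone agonist during compound treatment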; for activity, negative = inhibition: % of control where 0% means no effect); conditions: HEK293 PPARg-UAS-bla, beta-lactamase ratio, antagonist mode; activity, negative = inhibition: at 76.8 µM (top of the series)
In short: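 We seeded GeneBLAzer HEK293 reporter cells at 3000 per well, allowed 6-6.5 h attachment at 37 C, then co-treated with test compound titrations and 50 nM rosiglitazone overnight (16 h). Inhibition was quantified from 460/530 nm emission ratios.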

[9] = target: Retinoic acid receptor RXR-alpha (Homo sapiens) (UniProt P19793); experiment: qHTS assay for small molecule agonists of retinoid X receptor alpha signaling (AID 588544; calls by dose curve;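 for activation: 0% = DMSO basal wells and 100% = reference agonist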); conditions: HEK293T RXRa-UAS-bla, beta-lactamase reporter, 18 h; activation: at 76.7 µM (top of the series)
Sequence of UniProt P19793 (P19793 whole entry, looked up): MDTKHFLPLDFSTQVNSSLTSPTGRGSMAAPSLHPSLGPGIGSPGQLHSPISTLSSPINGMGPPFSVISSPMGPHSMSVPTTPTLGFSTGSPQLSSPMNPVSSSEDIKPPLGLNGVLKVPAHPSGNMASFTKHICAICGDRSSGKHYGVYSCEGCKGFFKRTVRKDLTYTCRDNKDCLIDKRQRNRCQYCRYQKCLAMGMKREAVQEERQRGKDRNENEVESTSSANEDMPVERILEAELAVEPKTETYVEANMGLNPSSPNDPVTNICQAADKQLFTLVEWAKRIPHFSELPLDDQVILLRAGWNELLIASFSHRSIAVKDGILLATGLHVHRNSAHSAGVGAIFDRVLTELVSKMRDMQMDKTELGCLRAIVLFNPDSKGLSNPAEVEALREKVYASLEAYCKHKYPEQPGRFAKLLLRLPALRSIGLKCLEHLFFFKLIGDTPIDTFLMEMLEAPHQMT

[10] = target: Thyroid hormone receptor beta (Homo sapiens) (UniProt P10828); experiment: qHTS assay for small molecule agonists of thyroid hormone receptor beta signaling (AID 588545; calls by dose curve); conditions: TR-UAS-bla GripTite HEK 293, beta-lactamase ratio, agonist mode, 18 h; activation: at 76.7 µM, percent of T3 response, DMSO as zero
Sequence of UniProt P10828 (P10828 whole entry, looked up): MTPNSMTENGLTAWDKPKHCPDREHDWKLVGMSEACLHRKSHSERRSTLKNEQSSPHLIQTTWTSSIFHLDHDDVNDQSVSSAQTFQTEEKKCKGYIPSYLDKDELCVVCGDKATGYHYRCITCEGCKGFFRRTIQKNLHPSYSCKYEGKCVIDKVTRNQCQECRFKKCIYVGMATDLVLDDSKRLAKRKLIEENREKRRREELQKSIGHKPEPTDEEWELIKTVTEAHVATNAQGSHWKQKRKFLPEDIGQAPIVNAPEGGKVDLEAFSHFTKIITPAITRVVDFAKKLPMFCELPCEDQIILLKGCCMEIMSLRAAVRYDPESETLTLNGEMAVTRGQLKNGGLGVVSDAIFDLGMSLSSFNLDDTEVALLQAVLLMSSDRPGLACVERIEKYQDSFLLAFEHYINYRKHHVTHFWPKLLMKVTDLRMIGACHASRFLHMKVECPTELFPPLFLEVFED
In short: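 In this cell-based screen, titrated compounds act on HEK 293 cells held in medium with 2% charcoal/dextran FBS, NEAA and pyruvate for 18 hrs at 37 C. Responses are expressed relative to T3 (10 nM) as 100% and basal DMSO as 0%.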

[11] = target: Retinoic acid receptor RXR-alpha (Homo sapiens) (UniProt P19793); experiment: qHTS assay for small molecule antagonists of retinoid X receptor alpha signaling (AID 588546; active = well fitted inhibition curve with a large enough effect in the signal ratio, with a control signal flat, not every such curve was filed as active; inconclusive = small, poorly fitted or top-dose-only effect, or effect the other way, or a change in a side signal; inactive = no such curve, though single readings can be large or run the other way; the % refers to the signal ratio;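 for max response: cells stimulated with 9-cis-retinoic acid as agonist; % is set by controls: 0 for no effect and ±100 for the full control effect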); conditions: HEK293T RXRa-UAS-bla, beta-lactamase ratio, antagonist mode
In short: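 Beta-lactamase reporter inhibition, read as CCF4 fluorescence ratio (ex 405, em 460/530 nm) after 2 h at RT. HEK293T UAS-bla cells, 2500/well, were stimulated with 9-cis-RA at 500 or 100 nM final alongside test compound for 18 h at 37 C.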

[12] = target: Thyroid hormone receptor beta (Homo sapiens) (UniProt P10828); experiment: qHTS assay for small molecule antagonists of thyroid hormone receptor beta signaling (AID 588547; active = well fitted inhibition curve with a large enough effect in the signal ratio, with a control signal flat, not every such curve was filed as active; inconclusive = small, poorly fitted or top-dose-only effect, or effect the other way, or a change in a side signal; the % refers to the signal ratio;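 for activity change % (negative = inhibition): cells stimulated with 0.4 nM T3 agonist during compound exposure; % is set by controls: 0 for no effect and ±100 for the full control effect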); conditions: TR-UAS-bla HEK293, beta-lactamase ratio, antagonist mode, 18 h
In short: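 TR-UAS-bla GripTite HEK293 cells in 2% charcoal/dextran FBS medium were preincubated 4 h at 37 C, given compound (0.59 nM to 92 uM) plus 0.4 nM T3 (final) for 18 h, then CCF4 for 2 h at RT; Hill fit gave IC50.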

[13] = qHTS assay to identify small molecules that stimulate interleukin-8 (IL-8) secretion (AID 651758; active = well fitted activation curve with a large enough effect in the signal ratio; inconclusive = small, poorly fitted or top-dose-only effect, or effect the other way, or a change in a side signal; the % refers to the signal ratio; for activation: 0% is about no effect); conditions: HTRF ratio (665/615); activation: at 92.2 µM (top of the series)
In short: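 THP-1, 2000 cells/well; cpd 16 h, 37 C; add cryptate + XL665 anti-IL-8 Abs; RT 1-3 h; TR-FRET read.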

[14] = qHTS assay for small molecule antagonists of the retinoid-related orphan receptor gamma (ROR-gamma) signaling pathway - cell viability counter screen (AID 720652; active = well fitted curve in the direction sought with a large enough effect in the repeat runs; inconclusive = weak or mixed curves; inactive = no such curve, though single readings can be large; an effect the other way counts as inactive or inconclusive;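 note: compound exposure lasted 16 hr before ATP read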); conditions: RORgamma reporter cell line viability counter screen; series mostly up to 92.2 µM
In short: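 CHO cells carrying TET-inducible ROR and RORE-luciferase reporter, plated 5 hr, then dosed with compound plus doxycycline. After 16 hr at 37 C, viability read as intracellular ATP by CellTiter-Glo luminescence.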

[15] = Cell Viability - Hek293 (AID 427;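 active = compounds whose dose-response curve shows a full or clear partial loss of cell viability, called from curve shape rather than a numeric limit; inconclusive = weak partial curves or an effect only at the top dose; inactive = no dose-dependent loss of viability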;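 note: cells exposed to compound for 40 hours at 37 °C before reading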); conditions: qHTS
In short: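 HEK293 cells in complete medium were exposed to compound for 40 hr at 37 °C, then cellular ATP was read by CellTiter-Glo luminescence. Data were normalized to DMSO (basal) and 100 uM tamoxifen (100% inhibition), and AC50 came from Hill fits.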

[16] = qHTS assay for small molecule agonists of the antioxidant response element (ARE) signaling pathway (AID 651741; active = well fitted activation curve with a large enough effect in the signal ratio; inconclusive = small, poorly fitted or top-dose-only effect, or effect the other way, or a change in a side signal; the % refers to the signal ratio; for activation: % of control where 0% means no effect); conditions: HepG2 ARE-bla reporter, beta-lactamase FRET ratio, 16 h; activation: at 96 µM (top of the series)
In short: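 Compounds in DMSO are pinned onto HepG2 ARE-bla cells (2,000/well) that were preincubated 5 h; plates stay 16 h at 37 C, then beta-lactamase activity is detected with LiveBLAzer B/G substrate by fluorescence.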

[17] = target: Estrogen receptor (Homo sapiens) (UniProt P03372); experiment: qHTS assay for small molecule antagonists of estrogen receptor alpha signaling (AID 588513; active = well fitted curve in the direction sought with a large enough effect in the signal ratio, with a control signal flat, not every such curve was filed as active; inconclusive = small, poorly fitted or top-dose-only effect, or effect the other way, or a change in a side signal; inactive = no such curve, though single readings can be large or run the other way; the % refers to the signal ratio; for activity, negative = inhibition: % is set by controls: 0 for no effect and ±100 for the full control effect); conditions: ER-alpha-UAS-bla HEK293, beta-lactamase ratio, antagonist mode; activity, negative = inhibition: at 76.9 µM (top of the series)
Sequence of UniProt P03372 (P03372 whole entry, looked up): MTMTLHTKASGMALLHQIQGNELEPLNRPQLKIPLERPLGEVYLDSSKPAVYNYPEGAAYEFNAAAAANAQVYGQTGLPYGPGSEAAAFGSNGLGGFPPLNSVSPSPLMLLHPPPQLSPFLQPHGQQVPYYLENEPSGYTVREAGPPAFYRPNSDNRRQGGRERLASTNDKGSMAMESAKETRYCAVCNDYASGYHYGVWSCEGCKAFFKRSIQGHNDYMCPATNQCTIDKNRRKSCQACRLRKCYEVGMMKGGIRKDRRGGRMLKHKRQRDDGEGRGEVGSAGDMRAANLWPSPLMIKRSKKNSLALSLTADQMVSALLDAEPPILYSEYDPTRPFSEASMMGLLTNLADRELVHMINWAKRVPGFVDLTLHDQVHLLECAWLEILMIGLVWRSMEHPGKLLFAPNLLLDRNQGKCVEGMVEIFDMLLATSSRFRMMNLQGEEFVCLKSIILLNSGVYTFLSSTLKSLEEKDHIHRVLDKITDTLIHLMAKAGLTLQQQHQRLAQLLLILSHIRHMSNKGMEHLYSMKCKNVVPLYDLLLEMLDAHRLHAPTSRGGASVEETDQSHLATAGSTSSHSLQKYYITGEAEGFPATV
In short: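 ER-alpha-UAS-bla GripTite HEK 293 cells in medium with 2% charcoal/dextran-treated FBS were preincubated 4 h at 37 C, dosed with compound (1:2 titration), stimulated with 0.5nM 17-beta-estradiol for 18 h, then read by CCF4 beta-lactamase fluorescence.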

[18] = target: Estrogen receptor (Homo sapiens) (UniProt P03372); experiment: qHTS assay for small molecule agonists of estrogen receptor alpha signaling (AID 588514; calls by dose curve; note: nearly all actives have a fitted effect of over 70% in size;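 for activation: 0% = vehicle only and 100% = reference agonist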); conditions: ER-alpha-UAS-bla HEK293, beta-lactamase ratio, 18 h; activation: at 76.8 µM (top of the series), percent of full estradiol response, vehicle zero unless noted
In short: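 ER-alpha-UAS-bla GripTite HEK293 cells, 5000/well in 2% charcoal/dextran-stripped FBS medium, treated with compound titrations 18 h at 37 C. CCF4 beta-lactamase read by fluorescence after 2 h RT; normalised to 20 nM 17-beta-estradiol (100%) and DMSO (0%), Hill fit for EC50 and efficacy.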

[19] = qHTS assay for small molecule agonists of the antioxidant response element (ARE) signaling pathway measured by Nrf2-dependant transcriptional activity (AID 720636; active = well fitted curve in the direction sought with a large enough effect in the repeat runs; inconclusive = weak or mixed curves; inactive = no such curve, though single readings can be large; an effect the other way counts as inactive or inconclusive); conditions: ARE-luc HepG2, Nrf2 luciferase reporter, 16 h; series mostly up to 92.4 µM
In short: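 Nrf2-dependent transcription is measured in ARE-luc HepG2 cells: compound is applied for 16 hr at 37 C after a 6 hr attachment period, and luciferase activity is quantified by luminescence using ONE-Glo.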

[20] = activity change, negative = inhibition: at 76.7 µM (top of the series)
Potency is the fitted concentration of half-maximal effect; tags give direction and shape of the fitted curve or compound fluorescence and quenching.

O=C(CCl)c1ccccc1
active: Potency [1] 15.8 µM | Potency [3] 25.1 µM | Potency [4] 10 µM | Potency [14] 29.8 µM
39.8 µM (active) and inactive: Potency [5]
inconclusive: Potency [2] 31.6 µM [cytotoxic, full curve, poor fit] | Potency [6, 20] 50.1 µM [side channel, rising, single point] | Potency [7] 44.7 µM [activator, partial curve, poor fit] | activation [7] 7.11% | activity, negative = inhibition [8] 6.83% | Potency [9] 31.6 µM [side channel, rising, partial curve] | activation [9] -42.7% | activation [10] -60.2% | Potency [11] 50.1 µM [side channel, rising, single point] | Potency [12] 11.2 µM [cytotoxic, side channel, partial curve, poor fit] | Potency [13] 84.1 µM [inhibitor, single point]

O=Cc1ccc(Cl)cc1Cl
inactive: Potency [15] > 92 µM
inconclusive: Potency [4] 0.631 µM [cytotoxic, full curve, poor fit] | activation [16] 17.8% | Potency [13] 75 µM [activator, single point]

CC12CC1(C)C(=O)N(c1cc(Cl)cc(Cl)c1)C2=O (stereo not drawn)
inconclusive: Potency [10] 0.794 µM [side channel, falling, full curve, poor fit] | max response [11] -61.1% | Potency [16] 42.2 µM [activator, single point] | activation [16] 15% | activation [13] 22.9% | Potency [14] 47.3 µM [cytotoxic, partial curve, poor fit]
inactive: Potency [15] > 92 µM | Potency [2] | Potency [3]

Nc1ccc(Oc2ccc(N)cc2)cc1
inconclusive: Potency [1] 50.1 µM [falling, partial curve] | Potency [2] 0.199 µM [cytotoxic, full curve, poor fit] | Potency [5] 50.1 µM [activator, single point] | activity change, negative = inhibition [6, 20] -17.1% | Potency [8] 44.7 µM [fluorescent, side channel, single point] | activity, negative = inhibition [8] 2.22% | activation [16] 8.12%
inactive: Potency [15] > 92 µM | activity change, negative = inhibition ([6]; at 76.7 µM (top of the series)) 8.22% | Potency [13]

c1ccc(N=NNc2ccccc2)cc1
active: Potency [16] 26.6 µM and 9.69 µM
inconclusive: activity, negative = inhibition [17] -36.3% | activation [18] 40% | Potency [8] 35.5 µM [inhibitor, partial curve] | activity, negative = inhibition [8] -26.9% | activation [9] -45% | Potency [10] 0.002 µM [side channel, falling, full curve, poor fit] | max response [11] -22.4% | activity change % (negative = inhibition) [12] 8.88% | Potency [13] 66.8 µM [activator, single point] | Potency [19] 16.8 µM [activator, partial curve, poor fit] and 30.6 µM [activator, partial curve, poor fit]

[CH3][Hg][Cl]
inconclusive: Potency [3] 6.31 µM [cytotoxic, partial curve, poor fit] | Potency [4] 6.31 µM [cytotoxic, full curve, poor fit] | Potency [18] 31.6 µM [side channel, rising, partial curve] | Potency [6, 20] 12.6 µM [side channel, rising, partial curve] | activation [7] -9.98% | Potency [8] 31.6 µM [side channel, rising, partial curve] | Potency [9] 5.01 µM [side channel, rising, partial curve] | Potency [10] 28.2 µM [cytotoxic, side channel, partial curve, poor fit] | Potency [12] 28.2 µM [side channel, rising, partial curve, poor fit] | Potency [13] 59.6 µM [inhibitor, single point] | Potency [19] 21.1 µM [activator, partial curve, poor fit]
active: Potency [2] 39.8 µM | Potency [17] 39.8 µM [inconclusive] | Potency [5] 11.2 µM | Potency [11] 2.24 µM | Potency [14] 10.6 µM

c1ccoc1
inconclusive: Potency [2] 0.158 µM [cytotoxic, single point] | Potency [6, 20] 50.1 µM [side channel, rising, single point] | activation [16] 6.48% | Potency [13] 75 µM [activator, single point]
inactive: Potency [15] > 92 µM | Potency [7] | Potency [8] | activity change % (negative = inhibition) [12] 20.3%

Oc1cc(Cl)c(Cl)c(Cl)c1
inconclusive: Potency [15] 77.6 µM [partial curve] | Potency [17] 20 µM [falling, full curve, poor fit] | Potency [18] 28.2 µM [side channel, rising, single point] | activation [7] -14.6% | activity, negative = inhibition [8] -25.6% | Potency [9] 44.7 µM [inhibitor, single point] | Potency [11] 70.8 µM [inhibitor, partial curve, poor fit] | Potency [13] 75 µM [activator, single point] | Potency [14] 33.5 µM [cytotoxic, partial curve]
